Out of some 150,000 compounds screened, about 540 (0.36%) showed an effect of 50% or more. Some of the results follow.
What follows are compounds tested on Plasmodium falciparum (assay: Primary screen in NF54 nanoGlo assay, in single point, at 2uM, 72h; a lower Z score goes with more inhibition). Conditions: timepoint 72 hour.
Type: functional, Erythrocyte

Structure (SMILES) | % Inhibition [%] | Z score
CC(C)c1cc(C(=O)NCc2cccnc2Oc2ccc(F)cc2F)on1 | -9 | 1.25
N#Cc1ccc(N[C@H]2CCc3nnc(-c4ccc(F)cc4)n3C2)nc1 | -20 | 1.83
CN(Cc1ccncc1Cl)Cc1noc2c1CCCC2 | 13 | -1.67
Cc1ccc(NC(=O)N2CC(c3nc(C(C)C)nn3C)C2)cc1F | 37 | -4.94
Cc1cnc(C)c(NCCc2ccn(C)n2)n1 | -1 | 0.15
COC(=O)CNc1cc(Cl)cc(C(N)=O)c1OC | 5 | -0.82
Cc1cn2nc(C(=O)N3CCCC3)cc2c(N(C)Cc2ccccc2)n1 | -4 | 0.47
CNC(=O)[C@@H]1Cc2cc(OC)c(OC)cc2CN1C(=O)CCCc1nnc2cccnn12 | -8 | 1
CC[C@H]1CC[C@H](C(=O)NCCC(C)(C)O)CC1 | -7 | 1.4
O=C(Nc1cccn2cnnc12)c1cccc(C(F)(F)F)c1 | -31 | 4.77
CCNC(=O)CN(CC)C(=O)COc1ccc(Cl)c(C)c1 | 32 | -0.63
CCn1cnc2c1CN(S(=O)(=O)c1ccc(Cl)s1)CC2 | -9 | 1.05
COC1CN(C(=O)N(c2ccccn2)[C@@H](C)c2ccco2)C1 | 7 | -0.97
CN(CC1CCC1)C(=O)Cc1csc(NC(=O)c2ccco2)n1 | -9 | 0.95
CN(C)C(=O)c1coc2nc3ccccc3nc12 | -12 | 1.52
CCOc1cc(CN2CCc3c(c(CN(C(C)=O)c4ccccc4)nn3C)C2)ccc1O | -15 | 1.36
Cc1c(C(=O)N2CCCCCC2)c(S(=O)(=O)N(C)C2CCCCC2)c(C)n1C | -11 | 2.12
CC[C@H](NCC(=O)NC1CC1)c1cc(F)ccc1F | 0 | 0.03
CCC(CC)n1nc(NC(=O)CNC)cc1C | -1 | 0.13
Cc1nc(N(C)C)sc1CN1CCCC(C(C)O)C1 (configuration not stated) | -8 | 0.85
CC(C)NC(=O)c1cccc(N2CCCN(Cc3ccccc3)C2=O)c1 | -3 | 0.58
NC(=O)[C@H]1CCCN1Cc1cc(-c2ccccc2)[nH]n1 | -13 | 1.43

Structure (SMILES) | % Inhibition [%] | Z score
c1cncc(COC2CCN(c3ncncn3)CC2)c1 | -17 | 2.14
O=C(NC1CCN(Cc2ccccc2)CC1)[C@H]1C[C@@H]1c1cccnc1 | 4 | -0.41
CCc1csc(CNC(=O)c2ccc(N3CCC[C@H]3CO)nc2)n1 | -18 | 3.37
Cc1nsc2c1[C@@H](c1ccc3cccc(O)c3n1)CC(=O)N2 | -3 | 0.31
CCn1cc(CC(=O)Nc2ccc(OC)c(OC)c2)c2cccnc21 | 10 | -1.17
COc1cc(C(=O)NCc2c3c(c(O)c4c2OCO4)C(=O)N(C)CC3)cc2c1OCCCO2 | -6 | 0.78
OCc1nc2cc(-c3cc(F)cc4cccnc34)ccc2[nH]1 | 0 | -0.01
CCN1CCC(NC(=O)COc2ccc(-c3ccccc3)cc2)CC1 | -15 | 1.39
Oc1nc2ccc(Cl)cc2c(-c2ccccc2)c1N1CCN(c2ccccc2)CC1 | -11 | 1.15
Cn1nncc1C(=O)N[C@H]1CCCC[C@H]1NC(=O)c1cnnn1C | -15 | 1.62
N#CCCCS(=O)(=O)Cc1ccccc1C1CC1 | 0 | 0.05
CC(C)(C)c1ccc(C(=O)N2CCS(=O)(=O)C3COCCC32)s1 (configuration not stated) | -3 | 0.33
CC[C@@H]1Oc2ccc(NC(=O)Cc3ccccc3)cc2CN(CCOc2ccccc2)C1=O | -18 | 2.11
COc1cc(C(=O)N2CCn3nc(CCC(=O)NCCO)cc3C2)ccn1 | 4 | -0.59
COc1ccc(-c2nnc3n2CCN(Cc2scnc2C)C3)cc1 | -4 | 0.84
C#Cc1cccc(NC(=O)C(=O)N(C)CCC#N)c1 | -10 | 1.47
CCCCc1nn(CC(=O)NCc2nc3c(s2)CCCC3)c(=O)n1CC | -14 | 1.82
O=C1c2ccccc2NC2(CCCCC2)N1c1ccc(F)cc1 | -9 | 1.31
Cc1ccc(-c2noc(N3CCN(C(=O)[C@@H]4CCCO4)CC3)n2)cc1 | -4 | 0.46
Cn1cccc1-c1nnc2n1CCN(C(=O)OC(C)(C)C)C(C)(C)C2 | 5 | -0.81
CC1=CCN(C(C)C(=O)N(C)CC2COc3ccccc3O2)CC1 (configuration not stated) | 3 | -0.47
COCCN1C[C@@H](c2ncnn2-c2ccc(Cl)cc2Cl)CC1=O | -22 | 1.98

Structure (SMILES) | % Inhibition [%] | Z score
Cc1nc(C(=O)Nc2ccc3c(c2)ncn3C)c(-c2ccc(F)cc2)s1 | -20 | 2.55
Cc1cscc1NC(=O)N1CCn2nc(C(F)(F)F)cc2C1 | 4 | -0.67
CCc1nn(C)c(Cl)c1CNCc1ccc2nsnc2c1 | -5 | 0.72
Cc1ccc2[nH]c(C(=O)N3CCC(C)CC3)cc(=O)c2c1 | -3 | 0.46
CN(C)c1ccc(N2C(=O)CC(N3CCCC(N4CCCC4=O)C3)C2=O)cc1 (configuration not stated) | -2 | 0.21
O=C(N[C@@H]1CN(C(=O)Nc2cccc(C(F)(F)F)c2)CCC[C@H]1O)c1ccc(O)cc1 | 8 | -1.53
CC(NC(=O)C1COCCN1)c1c(Cl)ccc(F)c1Cl (configuration not stated) | 6 | -0.9
CCC(O)CN1C(=O)C2CCCCN2C1=O (configuration not stated) | -15 | 2.19
Cc1csc2c(N3CCO[C@H](c4nccs4)C3)ncnc12 | -9 | 1.24
CCc1ccc(C(=O)NC[C@H](C)n2ccnc2)[nH]1 | -10 | 0.97
O=C1[C@H]2CCCN2C(=O)N1Cc1ccc(O)c(Br)c1 | 0 | -0.03
CC1CCN(C(=O)c2cc(NC(=O)Nc3ccccc3Br)ccc2N2CCC(C)CC2)CC1 | -4 | 0.6
CN(C)C(=O)CCn1cc(-c2cnn(-c3ccccn3)c2)cn1 | -13 | 1.35
COc1cccc(-c2ccc(N3CCN(C(=O)CN(CC4CC4)C(=O)c4ccccc4F)CC3)nn2)c1 | -14 | 1.54
CCn1cc(NC(=O)Cn2cc(C)c(-c3cnn(C)c3)n2)nn1 | -11 | 1.46
Cc1cc(C)cc(C2=CCN(c3nc(C)c(S(N)(=O)=O)s3)CC2)c1 | 13 | -1.53
CC(C)c1nnnn1CC(=O)N1CCN(c2ncccn2)CC1 | -18 | 2.83
Cc1nc([C@@H](N)Cc2ccc(O)cc2)n(-c2cccc3cccnc23)n1 | -13 | 1.68
CO[C@H]1CCN(c2ncc(Cl)cc2Cl)C1 | 0 | -0.06
C=CCC1(CC=C)CCCN1C(=O)c1cc(C)nc(C)n1 | -16 | 1.75
COCc1cc(N2C[C@@H]3CN(C4CCCCC4)C[C@]3(C(=O)O)C2)ncn1 | -21 | 2.68
COc1cnc(NS(=O)(=O)c2sccc2OC)nc1 | 11 | -0.98

Structure (SMILES) | % Inhibition [%] | Z score
CN(Cc1sc2ccccc2c1Cl)C(=O)CCNS(C)(=O)=O | -3 | 0.49
O=S(=O)(c1ccccc1)N1CCC(Nc2ccc(Br)cc2)CC1 | 34 | -1.28
O=C(CCc1cccs1)N1CCN(C(=O)C2CCC2)[C@H]2CS(=O)(=O)C[C@H]21 | -23 | 3.14
O=C(CN1C(=O)COC1=O)c1ccc2c(c1)CCCC2 | 5 | -0.55
CC(=O)Nc1c(C)cc(S(C)(=O)=O)cc1C | -4 | 0.46
CN(C)C(=O)CN1C(=O)[C@@H]2CC[C@H]1CN(C(=O)c1ccc3ncsc3c1)C2 | -1 | 0.17
C[C@H]1CC[C@H](O)CN1Cc1ccc(C(=O)O)cc1 | -3 | 0.59
C[C@@H](COc1ccccc1)NCCc1nc2ccccc2c(=O)[nH]1 | 4 | -0.64
CCN(C(=O)CN1CCC[C@H]1c1ccc2c(c1)OCCCO2)c1ccccc1C | -10 | 1.97
Cc1nn(C)c(C)c1S(=O)(=O)NCCn1nc(-c2ccccn2)c2c1CCCC2 | -17 | 2.18
COc1cccc(-n2cc(C(=O)O)c3c2[C@@H](c2ccc(O)cc2)CC(=O)N3)c1 | -1 | 0.16
Cc1ccc(Oc2ccc(CN3CC[C@H](N)[C@@H](O)C3)cc2)cc1C | 7 | -1.12
Cc1cc(Br)c(C(=O)O)cc1N | -13 | 1.47
Cc1noc(CN[C@@H](C)c2cccc(-n3cccn3)c2)n1 | -2 | 0.31
O=C(c1cnc(NCc2ccc3sccc3c2)c(Cl)c1)N1CCOCC1 | 5 | -0.7
CC1CCN(CN2C(=O)N(CN3C(=O)N(CN4CCC(C)CC4)C(=O)C3(C)C)C(C)(C)C2=O)CC1 | 0 | -0.01
O=C(N[C@@H](CO)c1ccsc1)c1cccc2c1OCC2 | -6 | 1.04
CCOc1ccc(-c2nc3c([nH]2)c(C)nn3[C@@H](C)CC)cc1CO | -11 | 1.61
O=C(C1CC1c1ccc(F)c(F)c1)N1CCCC1CO (configuration not stated) | -6 | 0.62
CCOC1CCN(C[C@@H](O)CC2CCCC2)CC1 | -11 | 1.66

From ChEMBL document CHEMBL4888484, “Replenishing the malaria drug discovery pipeline: Screening and hit evaluation of the MMV Hit Generation Library 1 (HGL1) against asexual blood stage Plasmodium falciparum ,using a nano luciferase reporter read-out” (2022)
